From publication PMC4336329 (PLoS ONE, 2015)
Hit rate of the full screen: of about 310,000 compounds, about 14,000 (4.5%) showed an effect of 50% or more. The effect is printed as a negative number. The list shows a part of the results.

molecular target: human ether-à-go-go-related gene (hERG) potassium channel (human, UniProt Q12809); assay: primary screen, population patch clamp on CHO cells stably expressing hERG
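Also: peak tail current of the secondary pulse compared with the same well before compound.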

human ether-à-go-go-related gene (hERG) potassium channel, sequence (Q12809 whole entry, looked up): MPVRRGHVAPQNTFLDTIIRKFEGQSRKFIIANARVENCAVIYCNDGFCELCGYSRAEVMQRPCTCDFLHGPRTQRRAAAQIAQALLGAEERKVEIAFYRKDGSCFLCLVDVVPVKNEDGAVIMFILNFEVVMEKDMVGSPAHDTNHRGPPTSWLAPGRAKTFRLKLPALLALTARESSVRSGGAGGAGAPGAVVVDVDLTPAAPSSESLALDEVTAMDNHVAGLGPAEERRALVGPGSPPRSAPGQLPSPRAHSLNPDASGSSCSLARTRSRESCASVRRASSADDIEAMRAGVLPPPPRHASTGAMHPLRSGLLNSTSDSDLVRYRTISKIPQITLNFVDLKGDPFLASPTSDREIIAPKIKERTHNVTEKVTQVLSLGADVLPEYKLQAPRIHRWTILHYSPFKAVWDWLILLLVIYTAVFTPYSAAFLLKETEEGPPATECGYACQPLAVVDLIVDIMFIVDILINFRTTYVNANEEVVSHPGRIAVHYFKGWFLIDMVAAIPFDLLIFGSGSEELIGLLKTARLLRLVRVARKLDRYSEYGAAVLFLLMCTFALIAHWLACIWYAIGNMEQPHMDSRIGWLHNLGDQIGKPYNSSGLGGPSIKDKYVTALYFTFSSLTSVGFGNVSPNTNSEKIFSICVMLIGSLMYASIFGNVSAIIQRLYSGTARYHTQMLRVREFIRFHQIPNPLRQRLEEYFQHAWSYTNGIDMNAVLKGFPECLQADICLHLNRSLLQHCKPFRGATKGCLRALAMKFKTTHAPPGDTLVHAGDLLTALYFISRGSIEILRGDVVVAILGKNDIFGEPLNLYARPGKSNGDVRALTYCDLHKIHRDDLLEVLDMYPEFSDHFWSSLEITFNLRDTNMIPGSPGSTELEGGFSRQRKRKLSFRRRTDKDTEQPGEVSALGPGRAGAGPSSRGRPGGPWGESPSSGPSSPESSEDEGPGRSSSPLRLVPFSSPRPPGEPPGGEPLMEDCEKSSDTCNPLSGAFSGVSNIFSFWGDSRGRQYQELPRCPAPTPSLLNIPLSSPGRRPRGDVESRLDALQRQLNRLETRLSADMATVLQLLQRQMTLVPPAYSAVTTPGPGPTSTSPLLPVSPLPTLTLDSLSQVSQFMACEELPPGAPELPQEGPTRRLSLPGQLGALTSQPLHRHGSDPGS

SMILES | hERG current change (%, negative = inhibition) at 10uM [%]
Cc1cc(C)cc(OC(=O)C23CCC(C)(C(=O)O2)C3(C)C)c1 (centres unmarked) | -12.2
CC(C)(C)c1ccc(C(=O)Nc2nnc(C3=COCCO3)o2)cc1 | 15.7
COc1ccc(N2CCN(C(=O)CCNS(=O)(=O)c3cc(Br)cnc3N)CC2)cc1 | -11.9
Cc1nc2ccccc2n1CC(O)COC1CCCCC1 (centres unmarked) | -8.21
COc1ccc(-c2cc(C(=O)OC(C)C(=O)Nc3c(C)n(C)n(-c4ccccc4)c3=O)c3ccccc3n2)cc1 (centres unmarked) | -36.2
CC(O)COc1ccc(/C(=N/O)c2ccccc2)cc1 (centres unmarked) | 15.8
CCN(C(=O)CSc1nnc(-c2ccco2)n1Cc1ccccc1)C1CCS(=O)(=O)C1 (centres unmarked) | -20.6
COC(=O)C(C)Sc1nc2c(cnn2-c2ccccc2)c(=O)[nH]1 (centres unmarked) | 5.35
COC(=O)c1ccc(COC(=O)CNC(=O)CNC(=O)c2ccc(C)cc2)cc1 | 8.37
Cc1ccc(-n2nnnc2SCC(N)=O)c(C)c1 | 17.9
Cc1cc(C)n2nc(SCc3cc(=O)oc4cc(O)ccc34)nc2n1 | -8.48
N#Cc1ccc(NC(=S)NC(=O)CCc2ccc(S(=O)(=O)N3CCOCC3)cc2)cc1 | 0.205
COc1cc(CNC2CCCCC2OC)cc(OC)c1OC (centres unmarked) | -7.47
O=C(Nc1c2c(nn1-c1ccc(F)cc1)CS(=O)C2)C12CC3CC(CC(C3)C1)C2 (centres unmarked) | 16.7
O=C(Cn1cccc(C(F)(F)F)c1=O)c1ccc(Cl)cc1 | -2.06
COc1ccccc1/C=C/C=N/N1CCN(c2ccccn2)CC1 | -2.4
Cc1ccccc1OCC(=O)N/N=C/C=C/c1ccccc1 | 13.4
CN(Cc1ccccc1)Cc1nc2c(c(=O)n(C)c(=O)n2C)n1Cc1ccccc1Cl | -5.6
Cc1cc(C)c(NC(=S)N(CCCN2CCN(C)CC2)Cc2cccs2)c(C)c1 | -43.9

SMILES | hERG current change (%, negative = inhibition) at 10uM [%]
COc1ccc2c(c1)CC/C2=N\OC(=O)c1ccccc1C | 28.2
Cc1ccc(OCCn2cnc3c2c(=O)n(C)c(=O)n3C)cc1 | 20
CCn1c(CC(=O)Nc2ccccc2C)nnc1SCC(=O)NC1CCCC1 | 9.3
Cc1ccc(C2=N/C(=C/c3cccs3)C(=O)N2Nc2ccccc2)cc1 | 3.7
CCOC(=O)c1ccc(NC(=O)C(=O)NCc2ccncc2)cc1 | -8.45
CCN(CC)S(=O)(=O)c1ccc(C)c(NC(=O)COc2ccc3c(C)cc(=O)oc3c2)c1 | 12.2
COc1ccc(S(=O)(=O)N2CCn3c2nc2ccccc23)cc1 | -9.34
COc1ccc(C)cc1S(=O)(=O)NC1CCCCCC1 | 6.25
O=C(Nc1ccccc1-c1ccccc1)c1cc(C(F)(F)F)cc(C(F)(F)F)c1 | 6.05
CC(C)Cn1cc(C(=O)N2CCC(C)CC2)c2c3ccccc3n(C)c2c1=O | -26.6
CCN(c1ccccc1)S(=O)(=O)c1cc(C(=O)OC2CCOC2=O)ccc1C (centres unmarked) | -17.5
CCN=C1SC(C(=O)Nc2ccc(OC)cc2)CC(=O)N1CC (centres unmarked) | 9.22
Cc1cc(/C=N/n2cnnc2)c(C)n1-c1cccc(Cl)c1 | -22.2
CCOC(=O)C1=NN(C(=O)COc2ccccc2)C(O)(c2ccc(Cl)cc2)C1 (centres unmarked) | 2.44
O=C(COC(=O)/C=C/c1cccc(C(F)(F)F)c1)Nc1ccc(Cl)cn1 | 15.1
COc1ccc(Cl)cc1NC(=O)Nc1cn(C)nc1C | 8.86
COc1cc(NC(=O)C23CC4CC(C2)CC(n2cnc([N+](=O)[O-])n2)(C4)C3)cc(OC)c1 | -66.7
Cc1noc(/C=C/N(C)C)c1S(=O)(=O)N1CCCC(C(=O)NC(C)c2ccccc2)C1 (centres unmarked) | -7.54
CCCCNCCOc1ccccc1-c1ccccc1.O=C(O)C(=O)O | -28.2

SMILES | hERG current change (%, negative = inhibition) at 10uM [%]
CCC(C(=O)NCC1CCCO1)N(Cc1ccccc1)C(=O)CNS(=O)(=O)c1ccccc1 (centres unmarked) | -3.51
CN(C)C(=O)Cn1c(SCC(=O)NC2CCCCC2)nc2ccccc21 | 7.7
COc1ccc(-c2c3c(=O)n(C)c(=O)n(C)c3cn2-c2ccccc2O)cc1 | -9.54
COc1ccccc1NC(=O)CSC(N)=O | 17.3
CCc1ccc2c(c1)C(=O)C[C@]1(CCC[C@H](C)C1)O2 | -13.8
Nc1ccc2nc(CCc3ccccc3)[nH]c2c1 | -13.1
CSc1nnc(-c2ccco2)c(-c2ccco2)n1 | 2.75
Cc1noc(C)c1COc1ccc(C(=O)OCC(=O)Nc2ccc3ccccc3c2)cc1 | 3.18
O=C(Nc1nnc(CCN2CCOCC2)s1)C1CCCCC1 | 7.59
CCOc1ccc(C2c3cc(OC)c(OC)cc3CC(=O)N2c2ccc(OC)cc2)cc1 (centres unmarked) | -9.16
CCCN(CC1CC1)CC(O)c1ccccc1.O=C(O)C(=O)O (centres unmarked) | 4.51
COCC1CCN(C(=O)C2CCC(=O)N(CCc3cccc(F)c3)C2)CC1 (centres unmarked) | 6.39
CCCCCCC(C)(C)c1ccc([C@@H]2C[C@H](O)CC[C@H]2CCCO)c(O)c1 | -26.6
O=C(O)C1CCCCC1C(=O)N1CC=C(c2ccccc2)CC1 (centres unmarked) | -8.6
CCCn1nc(C(=O)NNC(=O)C2CSC3(C)CCC(=O)N23)c2ccccc2c1=O (centres unmarked) | 5.35
Fc1ccc(-c2cc(C(F)(F)F)nc(NCC3CCCO3)n2)cc1 (centres unmarked) | -3.65
O=C(CN1CCN(S(=O)(=O)c2ccccc2)CC1)Nc1ccc(Cl)cn1 | -29.5
O=C(NC1CCCC1)C(c1ccsc1)N(Cc1ccccc1)C(=O)Cc1cccs1 (centres unmarked) | -29.9
